Measured values from the RNAGym collection of RNA variant scans (doi:10.1073/pnas.2313332121).
Variants at the background level are over-represented here.

B1: TPR 5TU (parent)
chain: GGAUCUUCUCGAUCUAACAAAAAAGACAAAUCUGCCACAAAGCUUGAGAGCAUCUUCGGAUGCAGAGGCGGCAGCCUUCGGUGGCGCGAUAGCGCCAACGUUCUCAACUAUGACACGCAAAACGCGUGCUCCGUUGAAUGGAGUUUAUCAUG

Variants of: B1
Test: polymerase ribozyme fitness, log enrichment relative to wild type (log ratio); higher = more active; in vitro selection for triplet polymerase activity
In short: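 The heterodimeric triplet polymerase ribozyme's subunits were each mutagenized into PCR-built libraries and transcribed. Every library was selected once, in triplicate, by annealing with a biotinylated primer, the partner subunit and triplets, incubating frozen at −7 °C, gel-excising extended constructs, capturing on streptavidin beads and running RT-PCR. Input and output libraries were Illumina-sequenced, with genotypes kept only at ≥10 input reads and ≥1 read per output. Fitness, from inverse-variance-weighted replicate averages, is the base-2 logarithm of genotype enrichment over wild-type enrichment.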

Polymerase ribozyme fitness (log ratio), ≤ -4.2:
C8G A52U C85U C95G G124U U135A
C8G C10U U13A A30U C36G C85U
C8G C14G U53A U55A C76A C96A
C8G C14U C35A C57U G58C A73U U77G C93U A106G C116G
C8G C14U C57U G62U C87A G126U
C8G C14U U53G G83U G88U C93G C105U G136U A137U U146G U148A
C8G C18G G46A U56G C85A U135G U144C
C8G C18U A19G A40C U55A G74C U78G
C8G C27A G86U G112C C132A
C8G C27A U33A C51A G58A C79U C96A U111G G143U A150C
C8G C35G C75U C87U C99U C123U
C8G C43A C87U U134G
C8G C51G C63U C75A G83C G86A C93A G126U
C8G C63G G68U G86A U127A C131A
C8G C76A G92U
C8G C93G A150G
C8G G11A A21U C51U U82C C95G C105A A121U
C8G G25A A30U G74U C95A C116A G124C U135A G136A A137G
C8G G48C G83A G88C
C8G G94C A106C C116U
C8G G94U C95U U151G
C8G U9A A21U C93U C131A
C8G U9C G50C A60U C75G U82C C116U
C8G U9G A22C C76G G88U A113C A119U
C8G U15C C35A U55A C76U C85U
C8G U31A G50C A89C C103G A147C
C8G U33C A39C G65A C96U C132U U139G
C8G U53C C76A G92U
C8U A12U A30C A47U U55G C87G C108U G133A G141U
C8U A16G C36U A41U G59U G83U A121C
C8U A16G C79U G143A
C8U A20C A52C C85U
C8U A20G A30U C35G A39C C96A G126A
C8U A20G C51G G94U U127G
C8U A21C A23C G80A U82G G86U A137G
C8U A21C A23G A91G A142C
C8U A21U G59A A107U C149U
C8U A23G G50A C95U A147C
C8U A23U A110G A138U U145G
C8U A24C G80C C93G
C8U A24G U61G G70A G92U C132G
C8U A26U A49G A73C A91G A121U
C8U A37G G42C C63U G94C A122G C131A
C8U A47U U56A G84A A91C C95U C105U A122U
C8U A60U C85U C131U
C8U A138G
C8U C14U A91G U109G
C8U C27U G46U C76U G92A A97G
C8U C32U U56G C75G G80A C85A
C8U C35A G67U
C8U C35U G68A C85A C116U
C8U C36A G48A C87A
C8U C36A U45C G117C
C8U C54U G59C C79G
C8U C85U A89U U90G G117C U146A A147U
C8U C87A G88U C103A G117A
C8U G11A G84A A89G
C8U G42C G68C A106C G141A U145A
C8U G48A U55G G71A U78G G83C G86A A89U U135G G143A
C8U G50A C95A C103A C149G
C8U G50U G65A C72U G94A G141A
C8U G58C A60C C85G A97G U148A
C8U G59U G67C G74A U77G C93G C116A
C8U G80U C85A
C8U G81U G92C C116A G133C
C8U U9G A30U U53A C93U C116U
C8U U13C C36A G50C C96A U101G
C8U U15C A23U A26G C27U G70U G83A A142C
C8U U31G U56A A119C G128C A138C U144G
C8U U55A G81A C93G U144G
C8U U134A
U9A A12G C43G G58C C93A G128U U145C U148A U151A
U9A A17U U55A G65U G70A G92U U102G A150C
U9A A19C G70A C93U A119C A121U
U9A A21G A41G G74C U82C C96A C105U C131U G133U G141C
U9A A21U A40U G42C C85A U146G
U9A A22G A23U C27A G71U G83C C108A U145A
U9A A23G A115U C123G G140C
U9A A26U A39U C75A G84U U135A G143U A147C
U9A A29U A47G A64G C93G U139G U148A
U9A A30C G59U C69U U90C U104C G133U
U9A A30G A40G G83C
U9A A40C C96A A97C C108U
U9A A41U A142U
U9A C10G A41U U61A C118G A122U G143A
U9A C14G C27G U44C A64G C96U U101G A138C
U9A C18G A23C C35A G83C
U9A C27G A73U C93U U102G C149G G152U
U9A C27U A52C G88C A122C A137G
U9A C36G A91G C95A
U9A C38U U56A C85U A89G U111A C114U C125A U134G A142G
U9A C72U G81A C95U
U9A C79A C87A C116U
U9A C85U A113U
U9A C93A A106G
U9A G11C A73G C87U U102A
U9A G25U C35G G58C U82C C85G G126U U134A A147C
U9A G50A U82G G83A A98G C99U G124C U134G
U9A G68C U78A
U9A G83U A89U A91G
U9A U44A G59A G81C
U9A U53A
U9A U53A C96A U104C G141A
U9A U53G A91C C95U U127G
U9C A16C C54U U55G G58A
U9C A16G A17U C63A G88A C93U
U9C A16U U56A C76A C85A A91U C99G A119U
U9C A19U G50U C85A C108G
U9C A20C G58C C87A U144A
U9C A26C C85U A150U
U9C A30C A39U U82G G88U C114U
U9C A47C G83A
U9C A52C A60C C85A G126U
U9C A52U G74U G88A A89G U111G A113G U145C
U9C A64C G84A A91U U148A
U9C A64G C87A A115G C125A U148C C149G
U9C C10A A12U G50C A52C C85G G88A G152U
U9C C10G C43U C85A U90G U109G U135C
U9C C38U A73U G84A
U9C C57A A91C G94A C105G A106G
U9C C75U A91U U135C
U9C G11A C87U
U9C G11U G48C C79G U102G A120U G136U
U9C G25A C38U U78A U90C G92U C95U A121G
U9C G62C C79U C108G U109G A120C A150C
U9C G84A C118U
U9C G88A U104G G143C
U9C U15G C93G U151A
U9C U45G U53A C95U C103G
U9C U53A A91G
U9G A12G A23C A30C G42A A52C C85A
U9G A16U A26C A60C C87A C99A U104A
U9G A17G A24U A30G G42C C43A G59U C95U U102C U135G
U9G A17G G83A C85G C114G C131A U144G
U9G A19U A20U A24G C57U C79A U90A A122G C132U
U9G A19U A52G U56A G68U C87A U145G
U9G A20C C35U G94U U148C
U9G A21C A73G G84U C87A
U9G A22U C35G G50U C95G C96U U135C
U9G A24C C85U C105U G112U
U9G A24G C35G A47C G68U C93G A142C U144G
U9G A29C
U9G A29G C95U G112U C116A C125A G141A U151G
U9G A30C U33A G42A U45A G48C A52G G81A G117A
U9G A37U C95U U144C
U9G A39U C85G
U9G A40C U146G
U9G A40G G50U G88C U139A
U9G A49G A52U C79U C85A C96G U102A A115U U134A G143A
U9G A49U G59A A60U C75G C76G G86A G126U
U9G A60G G67C
U9G A73G U77G C131G
U9G A91G G94C G143A
U9G C14G A28U U45A A60U C75A C108G A138G
U9G C14G A37G C38U U45G U55A G86U C103G
U9G C14U C57G C72A C87U
U9G C18G A40C G48C U55A C72U C103G U127A
U9G C18U C54G G67U G83U C108A G117A U148C A150C
U9G C18U G67U G80C G83A U102G A106C A142G
U9G C32A A49U G83U
U9G C32A G48A C54U C95U C149A
U9G C35A U53A C63G
U9G C36A C57U G59A G74A C85G U90A C95A C114U G136C
U9G C36A G70U A122U
U9G C36U U146G
U9G C38A G86C C108A A122C A150C
U9G C69A C93G C96A A98G
